Laboratory results from PMC4336329 (PLoS ONE, 2015).
Screen size: about 310,000 compounds; about 2,200 (0.71%) showed an effect of 50% or more. Effects have a minus sign here. The list shows a part of the results.

target: human ether-à-go-go-related gene (hERG) potassium channel (human, UniProt Q12809); test: primary screen, population patch clamp on CHO cells stably expressing hERG
Sequence (Q12809 whole entry, looked up): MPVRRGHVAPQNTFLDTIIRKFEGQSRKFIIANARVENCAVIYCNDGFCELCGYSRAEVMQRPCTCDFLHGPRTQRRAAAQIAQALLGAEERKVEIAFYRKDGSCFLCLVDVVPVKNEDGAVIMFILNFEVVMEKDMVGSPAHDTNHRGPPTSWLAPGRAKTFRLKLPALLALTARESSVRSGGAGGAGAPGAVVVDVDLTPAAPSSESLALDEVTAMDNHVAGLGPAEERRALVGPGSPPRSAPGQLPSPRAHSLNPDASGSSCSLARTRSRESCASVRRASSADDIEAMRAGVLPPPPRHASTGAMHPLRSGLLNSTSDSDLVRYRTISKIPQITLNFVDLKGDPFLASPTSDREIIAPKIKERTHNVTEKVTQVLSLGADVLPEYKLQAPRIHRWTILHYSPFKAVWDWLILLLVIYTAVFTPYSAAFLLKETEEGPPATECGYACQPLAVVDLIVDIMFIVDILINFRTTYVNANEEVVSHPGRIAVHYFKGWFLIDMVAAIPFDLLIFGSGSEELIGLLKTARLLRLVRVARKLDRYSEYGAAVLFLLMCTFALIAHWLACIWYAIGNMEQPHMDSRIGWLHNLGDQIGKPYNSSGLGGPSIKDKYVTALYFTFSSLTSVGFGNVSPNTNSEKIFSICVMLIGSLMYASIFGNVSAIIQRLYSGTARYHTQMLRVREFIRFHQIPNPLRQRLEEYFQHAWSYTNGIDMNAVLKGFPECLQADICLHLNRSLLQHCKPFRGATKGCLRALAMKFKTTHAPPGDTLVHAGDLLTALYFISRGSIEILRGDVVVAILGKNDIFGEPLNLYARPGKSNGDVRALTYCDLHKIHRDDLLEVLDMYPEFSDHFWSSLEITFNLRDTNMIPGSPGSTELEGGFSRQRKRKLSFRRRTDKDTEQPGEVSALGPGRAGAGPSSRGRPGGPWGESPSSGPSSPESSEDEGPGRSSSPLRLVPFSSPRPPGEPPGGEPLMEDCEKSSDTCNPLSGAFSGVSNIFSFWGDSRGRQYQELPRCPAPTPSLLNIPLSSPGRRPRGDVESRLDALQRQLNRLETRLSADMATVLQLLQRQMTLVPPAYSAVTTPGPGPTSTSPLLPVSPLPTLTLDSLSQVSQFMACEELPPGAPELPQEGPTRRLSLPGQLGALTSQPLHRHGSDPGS

SMILES	hERG current change (%, negative = inhibition) at 1uM
CCOC(=O)N1CCC(=NNC(=O)c2ccc(O)cc2)CC1	3.38%
O=C(c1ccccc1NS(=O)(=O)c1ccc2c(c1)OCCO2)N1CCOCC1	10.6%
O=C(CCC(=O)N1CCN(S(=O)(=O)c2cccc(F)c2)CC1)c1cccs1	10.1%
CC(NC(=O)C1(c2cccs2)CCOCC1)c1ccccc1 (centres unmarked)	14.1%
COc1ccc(-c2nc(-c3ccccc3)c(-c3cc([N+](=O)[O-])ccc3C)[nH]2)cc1O	9.05%
COc1ccccc1NC(=O)C(C)OC(=O)CSCC(=O)Nc1cc(C)on1 (centres unmarked)	8.19%
CCOC(=O)C1CCN(Cc2cc(C(C)(C)C)c(O)c(C(C)(C)C)c2)CC1	-14%
O=C(OCCCN=C1NS(=O)(=O)c2ccccc21)c1ccccc1F	4.96%
COc1ccccc1C(=O)Nc1nc2cc3c(cc2s1)OCO3	17.1%
O=C(c1ccc(F)cc1)C1CCN(C(=O)Nc2ccc(F)cc2)CC1	-10.8%
CCN(CC)C(=O)C(=O)N/N=C/c1ccc(C(=O)O)cc1	8.42%
Cc1cccc(NS(=O)(=O)c2nnc(NC(=O)C3CCCCC3)s2)c1	11.7%
C/C(=N\NC(=O)c1nnn(-c2nonc2N)c1C(C)C)c1ccncc1	8.4%
Cc1onc(-c2ccccc2Cl)c1C(=O)N(Cc1ccccc1)C(C)C	12.4%
Cc1cccc(/C=C(\C(=O)C(=O)O)c2ccc3ccccc3n2)c1	12.5%
NC(=O)c1cnn2c(C(F)(F)F)cc(-c3ccc(F)cc3)nc12	-3.31%
CC1=NN(c2nc3ccccc3s2)C(O)(C(F)(F)F)C1 (centres unmarked)	11.3%
Cc1nc2c(C(F)(F)F)cccc2c2c1CCS2	5.28%
O=[N+]([O-])c1ccc(/C=N/N/C(=N/c2ccccn2)c2ccccn2)cc1	7.3%
Cc1ccc(SCC(=O)NCCc2ccc(F)cc2)cc1	17.1%
O=C(NC(=O)c1ccccc1)OCC(F)(F)F	12.2%
CN(Cc1cn(Cc2ccccc2)nc1-c1ccc2c(c1)OCO2)Cc1nccn1C	-6.55%

SMILES	hERG current change (%, negative = inhibition) at 1uM
O=C(Nc1cc(Cl)ccc1Oc1ccccc1)c1ccc(F)cc1	-1.7%
Cc1ccc(C(O)P(=O)(OCCC(C)C)c2ccc(N(C)C)cc2)cc1 (centres unmarked)	14%
COc1cc(S(=O)(=O)N(C)Cc2ccc3c(c2)OCCO3)ccc1NC(C)=O	8.5%
CCn1cc(/C=C(\NC(=O)c2ccccc2F)C(=O)NCCCn2ccnc2)c2ccccc21	-1.46%
COc1cc(-c2nnc(SCc3c(F)cccc3Cl)o2)cc(OC)c1OC	11.8%
CCCC(C)NC(=O)CSc1nnc(-c2c[nH]c3ccccc23)o1 (centres unmarked)	-0.615%
CCCCCOC(=O)C1=C(C)N(C)C(=O)NC1c1cc(Br)c(O)c(OC)c1 (centres unmarked)	-2.63%
COc1cccc(OCCCN2CCN(S(=O)(=O)c3ccc(NC(C)=O)cc3)CC2)c1	10.6%
CCSc1nnc(CNC(=O)c2ccccc2F)n1-c1ccccc1OC	15.2%
c1ccc(CN2CCC(N3CCN(Cc4ccc5c(c4)OCO5)CC3)CC2)cc1	-0.767%
Cc1cc(OCC(=O)NCc2ccccn2)c2c(C)cc(=O)oc2c1	8.74%
CCOc1ccc(Cc2noc3c2C(=O)CCC3)cc1OCC	23.3%
CC(C)Cc1ccc(/C(=N/O)C(=O)O)s1	10.6%
CCc1nc(NC(=O)c2sc(C)nc2C)sc1C(=O)OC	6.61%
COc1ccccc1NS(=O)(=O)c1cc(NC(=O)C(C)NC(N)=O)ccc1N1CCCC1 (centres unmarked)	4.13%
CCCCOc1ccc(C(C)NC(=O)CCS(=O)(=O)Cc2ccccc2Cl)cc1 (centres unmarked)	13.2%
COC(=O)c1ccc(NC(=O)CSC2=Nc3ccccc3C3CC=NN23)cc1 (centres unmarked)	8.83%
O=C(COC(=O)c1ccc(O)cc1O)N=c1sccn1Cc1ccccc1Cl	14.6%
CCOC(=O)c1c(S(=O)(=O)N2CCN(C)CC2)c(C)n(C)c1C	7.87%
CS(=O)(=O)C1=NSC2=NC(=O)/C(=C\c3ccc(OC(=O)c4ccco4)cc3)C(=N)N21	16.3%
Cc1ccc(C)c(NC(=O)C2CC(=O)N(C3CCCCC3)C2)c1 (centres unmarked)	3.55%
CCCCN(CCCC)C(=O)CN(C)S(=O)(=O)c1ccc2c(c1)n(C)c(=O)c(=O)n2C	2.52%

SMILES	hERG current change (%, negative = inhibition) at 1uM
CC1CN(c2ccccc2)c2nc3c(c(=O)[nH]c(=O)n3C)n2C1 (centres unmarked)	12.6%
Cc1ccc(OCC(=O)Nc2cc(S(=O)(=O)N3CCCCC3)ccc2N2CCN(C)CC2)c(C)c1	-4.54%
COc1cc(S(=O)(=O)Nc2ccc3nc(C)sc3c2)ccc1NC(C)=O	13.3%
Cc1ccccc1NC(=O)c1c(C)cc(=O)oc1C	18.8%
Cc1cccc(NC(=O)CN2C(=O)COc3ccc(Cl)cc32)c1	8.94%
CCc1c(C(=O)N/N=C/c2ccco2)nnn1-c1nonc1N	14.8%
CCOc1ccc(-n2nnc3c(=O)n(CC(=O)NCc4ccco4)cnc32)cc1	11.1%
Cc1cccc(OCC(O)Cn2c(N3CCCCC3)nc3c2c(=O)[nH]c(=O)n3C)c1 (centres unmarked)	9.31%
O=C(Nc1cccc2ncccc12)c1cc([N+](=O)[O-])ccc1Cl	15%
COC(=O)c1c(N2C(=O)CC(Sc3ccccc3C(=O)O)C2=O)sc(C)c1C (centres unmarked)	14.8%
O=C(CNC(=O)c1ccco1)NCC(=O)OCC(=O)c1ccc(Cl)c([N+](=O)[O-])c1	12.2%
CCOc1ccccc1N1CCN(Cc2cnc(-c3ccccc3)[nH]2)CC1	-3.01%
Cc1ccc([N+](=O)[O-])c(OCCN2CCCCCC2)c1.O=C(O)C(=O)O	-9.99%
Cc1c2cnn(CC(=O)NCCCN3CC(C)CC(C)C3)c(=O)c2c(C)n1Cc1ccc(Cl)cc1 (centres unmarked)	9.41%
Cc1ccc2nc(Nc3nc(C)cc(C(F)(F)F)n3)nc(C)c2c1	12.3%
CC1(C)CC(=O)c2cc(C(=O)NC3CCSC3=O)c(=O)n(-c3ccccc3)c2C1 (centres unmarked)	10.9%
CCC(=O)N1CCN(CCN=CC2=C(O)CC(C)(C)CC2=O)CC1	8.04%
C#CCOCCOCCOCCNc1nc(N2CCN(C(=O)[C@H](Cc3cc4ccccc4[nH]3)n3cc([C@@H](N)C(C)CC)nn3)CC2)nc(N2CCN(C(=O)[C@H](Cc3cc4ccccc4[nH]3)n3cc([C@@H](N)Cc4ccc(O)cc4)nn3)CC2)n1.Cl (some centres unmarked)	10.9%
COc1ccccc1-c1nnc(NC(=O)C(C)SC2=NCCS2)s1 (centres unmarked)	6.93%
Cc1cc(C)c2nc(N3CCC(C(=O)NCc4ccccn4)CC3)sc2c1	9.75%
CSc1nc(NCCOCCO)c2sc3nc(-c4ccco4)c4c(c3c2n1)CCC4	-2.08%
O=C1CCC(=O)N1OCCOc1ccc(Cl)c2ccccc12	12.2%

SMILES	hERG current change (%, negative = inhibition) at 1uM
O=C(CCN1C(=O)/C(=C/c2ccccc2Cl)SC1=S)N1CCOCC1	24.5%
CC1CC(C)CN(CCC(=O)Nc2ccc(Br)cc2)C1.Cl (centres unmarked)	-9.22%
CC1(C)CC(=O)C(N=Nc2cc(S(=O)(=O)N3CCOCC3)ccc2Cl)=C(O)C1	19.3%
O=C(Nc1ccccc1C(=O)N1CCCC1)c1ccc(Cl)cc1Cl	10.3%
CCOC(=O)CC1NC(=O)c2ccccc21 (centres unmarked)	4%
S=c1[nH]nc(-c2ccc(Cl)cc2Cl)n1-c1ccc2c(c1)OCCO2	13%
O=C(CCSc1ccc(Cl)cc1)NCc1ccccn1	10.4%
Cc1nn(-c2ccccc2)c(N)c1N=Nc1ccccc1	5.06%
COc1ccccc1CNC(=O)C(C)Sc1ccsc1[N+](=O)[O-] (centres unmarked)	10.1%
O=C(NCc1nc2ccccc2[nH]1)c1cccc(S(=O)(=O)N2CCOCC2)c1	-0.27%
O=C(COc1ccc(S(=O)(=O)N2CCCCC2)cc1)NCc1ccccn1	18.3%
O=S(=O)(c1ccc(Cl)cc1)N1CCC(n2cccc2)CC1	17.8%
CC12CCC(C(=O)n3c1nc1ccccc13)C2(C)C (centres unmarked)	9.54%
COc1ccc(OC2OC3COC(c4ccco4)OC3C(O)C2NC(C)=O)cc1 (centres unmarked)	8.3%
N#Cc1c(NC(=O)C2CC(Cl)=CCC2C(=O)O)sc2c1CCCC2 (centres unmarked)	7.1%
O=C(Nc1ccc(F)cc1)c1ccccc1NS(=O)(=O)N1CCCC1	2.58%
COc1ccc(-c2nn(-c3ccccc3C)cc2CNCCc2cnc[nH]2)cc1F	-12.9%
COc1ccc2sc(NC(C)=O)nc2c1	5.13%
O=C(O)CCC(=O)N1CCC(n2nnc3cc(C(F)(F)F)ccc32)CC1	11.4%
COC(=O)c1cc(C(=O)c2cc(Br)ccc2O)coc1=N	24.7%
